In the BET-seq Pho4 binding data (Le et al. 2018):
Some of the results follow. These are noisy estimates, calculated here from bound and input reads.

molecular target: T1, Pho4 (S. cerevisiae) (UniProt P07270); assay: relative binding free energy (BET-seq); higher = weaker binding; conditions: reference: library average
T1 sequence: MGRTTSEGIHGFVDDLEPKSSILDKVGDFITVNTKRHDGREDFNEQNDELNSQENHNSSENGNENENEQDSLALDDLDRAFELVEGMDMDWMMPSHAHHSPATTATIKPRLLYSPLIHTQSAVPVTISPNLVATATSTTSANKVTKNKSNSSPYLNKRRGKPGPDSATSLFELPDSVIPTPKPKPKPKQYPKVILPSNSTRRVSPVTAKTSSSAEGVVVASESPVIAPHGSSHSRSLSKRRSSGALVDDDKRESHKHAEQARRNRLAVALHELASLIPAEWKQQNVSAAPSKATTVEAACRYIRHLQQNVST

Sequence	relative binding free energy [kcal/mol]
TGTGACACGTGTGATG	0.07
TATGGCACGTGTCAGT	-0.07
AATGGCACGTGGGCCG	-0.26
GGTTTCACGTGAACGA	0.45
ACGGTCACGTGTAAGT	0.17
TTATGCACGTGTGTGC	-0.01
TTGTTCACGTGGTCGG	0.28
ATTTACACGTGGGGGT	0.01
GTAAGCACGTGCGGAG	-0.09
GTGTGCACGTGAACTG	0.17
GGAGGCACGTGACCGG	-0.06
TTAGCCACGTGTGTAT	-0.17
AGGAGCACGTGGGGGA	-0.2
CGTAGCACGTGTAGTG	-0.13
AGAGGCACGTGTTCAG	-0.07
GGGCACACGTGATTGT	0.19
TAATGCACGTGAATGG	0.26
CGGCTCACGTGAAGGG	0.23
GGGTGCACGTGGTACA	-0.18
GAGTGCACGTGAGGGC	0.32
GCGTTCACGTGTGTTG	0.3
GAGATCACGTGGTTTG	0.13
TATCACACGTGAGTTG	0.28
ATTTGCACGTGGTGTC	-0.03
AAGGGCACGTGTGCCG	-0.13

Sequence	relative binding free energy [kcal/mol]
GGGCTCACGTGGACGG	0.24
CGCGTCACGTGTTGGA	0.25
CACTGCACGTGGGGTG	-0.29
ATGAGCACGTGTTATG	-0.04
TTTGGCACGTGTGAAT	0.05
ACGGTCACGTGGAGTG	0.1
TTTGTCACGTGTCAGT	0.05
GATTGCACGTGCATTG	0.16
TGTGTCACGTGAGTTC	0.38
GGTGTCACGTGGAGAG	0.14
AGTTACACGTGAAGGA	0.33
TTAAGCACGTGTGGAT	0
ATTTACACGTGGAGTG	0.13
TTGTGCACGTGCGGTC	0.02
TAGATCACGTGGGTAA	0.06
ATAATCACGTGTTGGT	0.13
CGTGTCACGTGTAGAG	-0.07
TGCTTCACGTGGATTA	0.32
ACAATCACGTGTGGTG	0.12
GTTGACACGTGGGCAG	-0.12
TGTTGCACGTGAACTT	0.08
CTTGGCACGTGGCGGG	-0.23
TCTTCCACGTGTGTTG	0
GTAGTCACGTGTGTCA	0.1
ATTTCCACGTGTGGTC	0.24

Sequence	relative binding free energy [kcal/mol]
ATGCGCACGTGGTTAG	-0.23
GGGATCACGTGAGTCG	0.36
TTATGCACGTGGGAGC	-0.16
GACTGCACGTGTGGGT	0.15
ATTAGCACGTGTCATG	0.01
AGGCTCACGTGGGTGT	0.19
ATGGACACGTGATGGC	0.15
GATGGCACGTGGAAAT	0.29
TTAGTCACGTGTGTTG	0.16
TTGGACACGTGTAGCT	0
GGTCACACGTGGAGGG	-0.1
TGCTTCACGTGTGGTG	0.23
GTATCCACGTGTGTTT	0.06
GTGAACACGTGTGAGA	0.16
TTGCACACGTGTTGGT	0.08
TGTTTCACGTGGATTT	0.25
ATGTACACGTGAGATG	0.33
GGTTCCACGTGGACGT	0.24
ATCGGCACGTGGAGTA	-0.08
GTGCTCACGTGATGGC	0.47
TAGGGCACGTGTGACG	-0.06
ATTTACACGTGAAATT	0.59
ATATTCACGTGTGGCT	0.15
TTTCGCACGTGTGGGC	0.05
GGGTGCACGTGAGGTC	0.36

Sequence	relative binding free energy [kcal/mol]
GGTGGCACGTGTTAGT	-0.03
GTTATCACGTGATTGA	0.3
TTTGTCACGTGGCAAG	-0.05
TCTAGCACGTGGTGAT	-0.16
TTTTGCACGTGTTAAG	0.09
GGCTTCACGTGAAGGT	0.44
GATGGCACGTGAGATT	0.18
TGATACACGTGGTGTT	-0.13
AAGTGCACGTGTTCTG	-0.21
TGGGTCACGTGTAGGC	0.13
GTTTCCACGTGGGGGT	-0.16
GTATACACGTGTTAAG	0.07
GTATGCACGTGAGTCG	0.1
ATTTTCACGTGGCCGG	0.32
GTTGTCACGTGAAGTT	0.33
AAGAACACGTGAGTTG	0.29
TTTATCACGTGTGAGG	0.21
AGGCGCACGTGTAGTA	0.04
GGAAGCACGTGGTGCT	-0.12
TAGGGCACGTGGGTGT	-0.31
GGGTCCACGTGGGAAG	-0.03
GGATGCACGTGTAGGT	0.06
TTTAGCACGTGAGGGA	0.21
TGCTTCACGTGTGCTG	0.16
TTAAGCACGTGTGACG	-0.05

Sequence	relative binding free energy [kcal/mol]
TGGGTCACGTGCTCTT	0.06
GGTTACACGTGTAGAA	0.26
GGGTGCACGTGATTCA	0.11
GTTATCACGTGATGTA	0.31
GGCGGCACGTGGCATT	-0.09
GGATTCACGTGTGTAT	0.36
TCCTGCACGTGTGGTT	0
TTCGACACGTGTGGTG	0.08
GGATACACGTGTGGCA	0.16
GTGTGCACGTGCGGAA	-0.1
GGTAGCACGTGGGTTC	-0.17
GGAATCACGTGGGCTA	0.12
TTTGTCACGTGTAATC	0.28
TAGTACACGTGAAGGA	0.39
GGTATCACGTGGGTAC	-0.02
CGGGGCACGTGCTTAG	-0.15
CAGTACACGTGATTGT	0.23
TAGGGCACGTGTGCAA	-0.17
GAGTACACGTGGCGTT	-0.02
CTTTTCACGTGGATAA	0.24
TTTGTCACGTGGCCGT	-0.03
GATGTCACGTGGCTGG	0.01
CAAAGCACGTGGGTTT	-0.11
CGGTGCACGTGTCGTA	0.03
ATTTTCACGTGCGATG	0.17

Sequence	relative binding free energy [kcal/mol]
TGATTCACGTGTCTAT	0.25
TGATACACGTGTTTGA	0.02
TGTATCACGTGCAAGT	0.08
TGGCGCACGTGTGAGC	0.09
TTAAGCACGTGGTATT	-0.11
GATGCCACGTGGGTTT	0.06
TTTCTCACGTGATGGC	0.29
GGGGGCACGTGTGCTT	-0.09
ATAGTCACGTGAGCTG	0.47
TTTTTCACGTGTACTG	0.37
GAGTTCACGTGACTTG	0.35
AGGTGCACGTGAGGGT	0.18
TTTTTCACGTGGGTGG	0.28
GGGGGCACGTGCCCGG	-0.24
GGCGTCACGTGTAAAG	0.2
GGCTCCACGTGTTGGG	0.22
TGAGTCACGTGTTTCG	0.05
TTTCGCACGTGGAGTT	0.08
GGGAGCACGTGGCGGA	-0.13
GGCGCCACGTGGAGGT	-0.12
ATGATCACGTGGATTG	0.06
